From PMC4336329 (PLoS ONE, 2015)
The whole screen tested about 310,000 compounds, of which about 2,200 (0.71%) showed an effect of 50% or more. The effect is printed as a negative number. The list shows a part of the results.

Target: human ether-à-go-go-related gene (hERG) potassium channel (human, UniProt Q12809)
Assay: primary screen, population patch clamp on CHO cells stably expressing hERG

Sequence of human ether-à-go-go-related gene (hERG) potassium channel (Q12809 whole entry, looked up): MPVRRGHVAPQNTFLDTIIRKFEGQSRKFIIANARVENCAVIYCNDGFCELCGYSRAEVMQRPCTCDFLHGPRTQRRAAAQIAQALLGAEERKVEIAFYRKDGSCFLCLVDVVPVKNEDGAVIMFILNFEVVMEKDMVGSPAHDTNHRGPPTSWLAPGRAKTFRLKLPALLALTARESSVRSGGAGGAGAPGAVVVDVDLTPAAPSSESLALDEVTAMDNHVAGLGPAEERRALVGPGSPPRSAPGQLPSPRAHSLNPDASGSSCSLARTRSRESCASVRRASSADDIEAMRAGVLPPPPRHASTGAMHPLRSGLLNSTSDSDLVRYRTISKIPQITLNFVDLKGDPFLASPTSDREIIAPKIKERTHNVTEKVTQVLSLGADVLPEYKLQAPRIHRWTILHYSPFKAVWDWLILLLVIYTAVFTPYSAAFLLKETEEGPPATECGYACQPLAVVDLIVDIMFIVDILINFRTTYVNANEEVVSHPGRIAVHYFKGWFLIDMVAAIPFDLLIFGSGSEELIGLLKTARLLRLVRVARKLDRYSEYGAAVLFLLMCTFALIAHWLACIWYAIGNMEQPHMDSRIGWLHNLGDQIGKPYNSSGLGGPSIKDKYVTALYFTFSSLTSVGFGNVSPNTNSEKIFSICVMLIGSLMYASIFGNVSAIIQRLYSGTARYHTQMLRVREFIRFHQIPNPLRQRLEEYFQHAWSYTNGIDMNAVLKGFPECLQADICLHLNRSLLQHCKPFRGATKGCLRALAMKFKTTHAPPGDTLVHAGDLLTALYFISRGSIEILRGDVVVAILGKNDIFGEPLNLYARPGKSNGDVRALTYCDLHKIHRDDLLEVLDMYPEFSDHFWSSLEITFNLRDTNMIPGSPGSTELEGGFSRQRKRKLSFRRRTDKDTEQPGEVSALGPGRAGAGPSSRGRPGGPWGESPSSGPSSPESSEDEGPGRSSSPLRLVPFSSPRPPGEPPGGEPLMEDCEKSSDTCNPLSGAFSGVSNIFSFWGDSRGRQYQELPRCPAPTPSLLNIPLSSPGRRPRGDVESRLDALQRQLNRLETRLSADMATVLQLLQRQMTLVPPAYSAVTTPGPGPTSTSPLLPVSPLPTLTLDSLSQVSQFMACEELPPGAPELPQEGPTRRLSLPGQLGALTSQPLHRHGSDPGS

| Structure (SMILES) | hERG current change (%, negative = inhibition) at 1uM |
| --- | --- |
| CC(C)Nc1nc(-c2ccccc2)nc(-n2ccnc2)n1 | -1.93% |
| N/C(=N\OC(=O)c1ccc(Br)o1)c1cccnc1 | 12.4% |
| CC(=C/c1ccccc1)/C=N/n1c(C)n[nH]c1=S | 16.3% |
| CCOc1cc(-c2cn(S(=O)(=O)c3cccc4nsnc34)nc2N)cc(OCC)c1OCC | 3.48% |
| COc1cccc(-n2c(O)c(C=NCc3ccc4c(c3)OCO4)c(=O)[nH]c2=O)c1 | -1.17% |
| Cc1ccc(NS(=O)(=O)c2ccc(-c3csc(C)n3)s2)c(C)c1 | 14.3% |
| CN(Cc1ccccc1)C(=O)CN1CCCC1=O | 5.46% |
| Cc1noc(C(=O)Nc2ccc(C#N)cc2)c1Cl | 15.1% |
| CCC(c1nnnn1CS(=O)(=O)c1ccc(C)cc1)N1CCN(c2nc3ccccc3s2)CC1 (stereo not drawn) | 10% |
| Clc1ccc(-c2nnc(-c3ccccc3)o2)c(Cl)c1 | 0.851% |
| CN(C(=O)COC(=O)CN1C(=O)c2cccc([N+](=O)[O-])c2C1=O)c1ccccc1 | 6.16% |
| CC(C)c1ccccc1NC(=S)NCCCn1ccnc1 | 14.1% |
| COc1ccc(-c2csc(N3CCC(c4ccccc4)C3)n2)cc1 (stereo not drawn) | 14.7% |
| CC(=O)c1ccccc1OCC(=O)Nc1cccc(S(=O)(=O)N2CCCC2)c1 | 9.57% |
| Cc1cc(C)cc(-n2nnnc2-c2cn(C)nc2C(F)(F)F)c1 | 11.8% |
| Clc1cccc(Cl)c1-c1nnc2cccc(Cl)n12 | -2.05% |
| COc1ccc(/C=C/C(=O)c2ccc(OC)cc2OC)cc1 | 9.96% |
| COCc1cc(=O)[nH]c(/N=C(\N)Nc2ccc(C)cc2C)n1 | 15.6% |
| Cc1nc2ccccc2nc1CSc1nnc(N)s1 | 7.12% |
| CCCn1c(=O)n(C)c(=O)c2c(SCC(=O)NC34CC5CC(CC(C5)C3)C4)nc(CC(C)C)nc21 | 10.2% |
| OCCC1CN(Cc2cccn2-c2ncccn2)CCN1Cc1ccc(F)cc1 (stereo not drawn) | -74.7% |

| Structure (SMILES) | hERG current change (%, negative = inhibition) at 1uM |
| --- | --- |
| COC(=O)c1cc(-c2ccccc2)sc1NC(=O)CN1C(=O)c2ccccc2C1=O | 12.3% |
| O=C(CSc1ccccc1)Nc1cc(S(=O)(=O)N2CCOCC2)ccc1N1CCOCC1 | 17.4% |
| COc1ccc2c(c1)CCCC21NC(=O)N(CC(=O)c2cc(F)ccc2F)C1=O (stereo not drawn) | 4.68% |
| O=C1[C@H]2[C@H]3[C@H](O)[C@H](O)C/C(=N\OC[C@@H](O)COCc4ccco4)[C@@H]3CC[C@H]2C(=O)N1c1ccc(F)cc1F | 19.3% |
| Cc1cccc(N2CCN(C(c3ccc(N(C)C)cc3)c3nnnn3C(C)(C)C)CC2)c1C (stereo not drawn) | -2.35% |
| Cc1ccc(NC(=O)CSc2nnc(NC(=O)c3ccc(S(=O)(=O)N4CCOCC4)cc3)s2)cc1 | 9% |
| C=CCNC(=O)NC(=O)COC(=O)c1nc2nccc(C)n2n1 | 12% |
| COc1cccc(NC(=O)COC(=O)/C=C/c2ccc(Cl)cc2Cl)c1 | 9.11% |
| Cc1ccc(C(=O)N2CCCC(C(F)(F)F)C2)cc1S(=O)(=O)N1CCOCC1 (stereo not drawn) | 5.54% |
| COc1ccc(C(=O)NCc2nnc(SCC(=O)NCc3ccc(F)cc3)o2)cc1 | 8.88% |
| CCc1nc(N)c(C#N)c(-c2ccco2)c1C | 12.1% |
| COc1cc2c3c(c1)C(C)CC(C)(C)N3C(=O)C2=O (stereo not drawn) | -7.9% |
| COc1cc([C@H]2c3[nH]c4ccccc4c3C[C@H]3C(=O)N4[C@@H](c5cc(OC)c(OC)c(OC)c5)c5[nH]c6ccccc6c5C[C@H]4C(=O)N23)cc(OC)c1OC | 2.52% |
| CC(=O)N1CN(S(=O)(=O)c2ccc(C)cc2)CC1C (stereo not drawn) | 11% |
| COc1ccc(N2C(=O)CC(NC3CCCCNC3=O)C2=O)cc1 (stereo not drawn) | 9.58% |
| CCN(Cc1cc2cc(OC)ccc2[nH]c1=O)C(=O)Cc1ccc(OC)cc1 | 4.5% |
| Cc1nc2ccc(S(=O)(=O)NC(C(=O)N3CCC(C)CC3)C(C)C)cc2s1 (stereo not drawn) | 5.19% |
| O=C(c1ccc(Cl)c(Cl)c1)N1CCC(=O)N(C(COCc2ccc(Cl)cc2)Cc2ccccc2)CC1 (stereo not drawn) | 0.912% |
| CC(C)N(C(=O)CC1ON(C)C(=O)N1c1ccc(Cl)cc1)C(C)C (stereo not drawn) | 3.83% |
| Cl.O=C(N1CCN(Cc2ccccc2)CC1)C12CC3CC(CC(C3)C1)C2 | 18.4% |
| CCOc1ccc(-c2cc(C)[n+](CCc3ccc(OC)c(OC)c3)c(-c3ccc(OCC)cc3)c2)cc1.[O-][Cl+3]([O-])([O-])[O-] | -70.1% |

| Structure (SMILES) | hERG current change (%, negative = inhibition) at 1uM |
| --- | --- |
| O=C(NCc1cccnc1)c1ccc(S(=O)(=O)N2CCCCC2)cc1 | 9.9% |
| Cc1nonc1C(=O)N/N=C/c1ccncc1 | 0.161% |
| CCN(CC)CC.NN1C(=O)/C(=C2/Sc3ccccc3N2CCCS(=O)(=O)O)SC1=S | 2.9% |
| CC(C)c1ccc(C(=O)NCCCN2CCN(CCCNC(=O)c3ccc(C(C)C)cc3)CC2)cc1 | -86.4% |
| Cc1[nH]c(C)c(S(=O)(=O)N2CCN(c3ccccc3F)CC2)c1C(=O)N1CCCCC1 | 9.66% |
| CCOC(=O)CN1C(=O)N[C@@H](c2cccs2)C(C(=O)OC)=C1C | 1.4% |
| O=C(c1cc2cc(F)ccc2[nH]1)N1CCC(Cc2ccccc2)CC1 | 14.2% |
| O=C(CSc1nnc(CNc2cccc(C(F)(F)F)c2)n1Cc1ccco1)NCc1ccco1 | 6.48% |
| CC1CCCCN1S(=O)(=O)c1coc(C(N)=O)c1 (stereo not drawn) | 9.23% |
| COc1ccc2[nH]c(=O)c(CN(Cc3cccs3)S(=O)(=O)c3cccc4nsnc34)cc2c1 | 2.55% |
| CCc1ccc(N/C(SC)=C(/C#N)C(N)=O)cc1 | -5.62% |
| COc1ccc(C(=O)/C=C/Nc2cccc(C)n2)cc1OC | 20.2% |
| CCCCCCC(=O)c1c([O-])n(-c2ccccc2OC)c(=O)[nH]c1=O.C[NH+](C)C | 14.1% |
| COc1ccc(/C=N\Nc2ccc([N+](=O)[O-])cc2)c(C(=O)O)c1OC | 10.5% |
| COc1ccc(C(CNC(=O)Cc2ccc3ccccc3c2)N(C)C)cc1 (stereo not drawn) | 9.52% |
| COc1ccc(OCCCC(=O)Nc2nnc(C3CCCO3)s2)cc1 (stereo not drawn) | 9.7% |
| O=C(NCc1cccnc1)c1ccc2c(c1)OCO2 | 7.74% |
| COc1ccc(NC(=O)c2ccc(-n3cccn3)nc2)c(OC)c1 | 17.4% |
| Cc1c(Cl)cccc1NC(=S)NCCc1ccc(S(N)(=O)=O)cc1 | 12.3% |
| COc1cc(OC)cc(C(=O)Nc2nnc(SCC(=O)NCc3ccco3)s2)c1 | 9% |
| N#C/C(=C\c1c[nH]c2ccccc12)C(=O)NCC1CCCO1 (stereo not drawn) | 15.5% |

| Structure (SMILES) | hERG current change (%, negative = inhibition) at 1uM |
| --- | --- |
| Cn1c(CNC(=O)c2ccccc2)nnc1SCC(=O)N1CCN(c2ccccc2)CC1 | 3.9% |
| Cc1ccc(N2CC(C(=O)OCc3ccccc3F)CC2=O)cc1 (stereo not drawn) | 0.883% |
| COC1CCCN(C(=O)c2ccc(OC3CCN(CCc4ccccc4)CC3)cc2)C1 (stereo not drawn) | 2.5% |
| COc1ccc(/C=C(/NC(=O)c2ccccc2)C(=O)N/N=C/c2ccncc2)c(OC)c1 | 15.5% |
| O=C1c2ccccc2C(=O)N1CCSc1ccccc1 | 7.13% |
| COc1ccc(OCCSc2ncc(CO)n2C)cc1 | 13.8% |
| O=c1[nH]c(NC2CCCCC2)c([N+](=O)[O-])c(=O)[nH]1 | 15.9% |
| Cc1cc(C)n(CCC(=O)N2CCCC(Nc3ccc(F)cc3)C2)n1 (stereo not drawn) | 14% |
| Cc1c(N=Cc2c(O)n(Cc3ccco3)c(=O)[nH]c2=O)c(=O)n(-c2ccccc2)n1C | 7.36% |
| CC1CN(c2ccc([N+](=O)[O-])cn2)CC(C)O1 (stereo not drawn) | 0.324% |
| Cc1noc(/C=C/N(C)C)c1S(=O)(=O)N(C)Cc1ccc(F)cc1 | 5.4% |
| Cc1ccc(C)c(S(=O)(=O)N2CCCOC2CNC(=O)C(=O)NCCc2ccccc2)c1 (stereo not drawn) | 8.93% |
| Cc1ccc(OCC(=O)N2N=C(C(F)(F)F)CC2(O)C(C)(C)C)cc1C (stereo not drawn) | -4.8% |
| CCCCc1[nH]nc2c1C1(C(=O)N(CC)c3ccccc31)C(C#N)=C(N)O2 (stereo not drawn) | 1.84% |
| CCc1ccc(N(C(=O)c2snc(C(N)=O)c2N)C(C(=O)NCC2CCCO2)c2cccs2)cc1 (stereo not drawn) | 7.84% |
| CCN1C(=O)C(C(=O)Nc2ccc(OC)cc2)C2CC1(C)Oc1ccccc12 (stereo not drawn) | 4.5% |
| COc1ccc(N(CC(=O)Nc2ccccc2C(=O)NCCc2ccccc2)S(C)(=O)=O)cc1OC | -8.91% |
| CCOC(=O)Cc1csc(NC(=O)CSc2nnc(C)n2C)n1 | 12.6% |
| CCc1ccc(OCC(O)CN2CCN(CCO)CC2)cc1.Cl (stereo not drawn) | 11.7% |
| CCN(CC(=O)Nc1ccccc1OC)C(=O)CN1C(=O)NC(C)(c2ccccc2)C1=O (stereo not drawn) | 5.56% |
| COC(=O)c1ccccc1NC(=O)C1CC(=O)N(c2ccc(C)c(C)c2)C1 (stereo not drawn) | 4.82% |
